Assay results published in PubChem BioAssay AID504333 (National Center for Advancing Translational Sciences (NCATS), 2011).
About 16,000 (4.4%) of roughly 360,000 compounds were called active. Calls follow the shape of the dose curve; as a rule, active = well fitted inhibition curve with a large enough effect; inconclusive = small, poorly fitted or top-dose-only effect; inactive = no such curve, though single readings can be large or run the other way. The inconclusive results got no clear call from the source. A potency beside an inconclusive call is a rough fit, not a confirmed value.

Target: Bromodomain adjacent to zinc finger domain protein 2B (Homo sapiens) (UniProt Q9UIF8)
Chain of UniProt Q9UIF8 (Q9UIF8 whole entry, looked up, the tested form may be a part): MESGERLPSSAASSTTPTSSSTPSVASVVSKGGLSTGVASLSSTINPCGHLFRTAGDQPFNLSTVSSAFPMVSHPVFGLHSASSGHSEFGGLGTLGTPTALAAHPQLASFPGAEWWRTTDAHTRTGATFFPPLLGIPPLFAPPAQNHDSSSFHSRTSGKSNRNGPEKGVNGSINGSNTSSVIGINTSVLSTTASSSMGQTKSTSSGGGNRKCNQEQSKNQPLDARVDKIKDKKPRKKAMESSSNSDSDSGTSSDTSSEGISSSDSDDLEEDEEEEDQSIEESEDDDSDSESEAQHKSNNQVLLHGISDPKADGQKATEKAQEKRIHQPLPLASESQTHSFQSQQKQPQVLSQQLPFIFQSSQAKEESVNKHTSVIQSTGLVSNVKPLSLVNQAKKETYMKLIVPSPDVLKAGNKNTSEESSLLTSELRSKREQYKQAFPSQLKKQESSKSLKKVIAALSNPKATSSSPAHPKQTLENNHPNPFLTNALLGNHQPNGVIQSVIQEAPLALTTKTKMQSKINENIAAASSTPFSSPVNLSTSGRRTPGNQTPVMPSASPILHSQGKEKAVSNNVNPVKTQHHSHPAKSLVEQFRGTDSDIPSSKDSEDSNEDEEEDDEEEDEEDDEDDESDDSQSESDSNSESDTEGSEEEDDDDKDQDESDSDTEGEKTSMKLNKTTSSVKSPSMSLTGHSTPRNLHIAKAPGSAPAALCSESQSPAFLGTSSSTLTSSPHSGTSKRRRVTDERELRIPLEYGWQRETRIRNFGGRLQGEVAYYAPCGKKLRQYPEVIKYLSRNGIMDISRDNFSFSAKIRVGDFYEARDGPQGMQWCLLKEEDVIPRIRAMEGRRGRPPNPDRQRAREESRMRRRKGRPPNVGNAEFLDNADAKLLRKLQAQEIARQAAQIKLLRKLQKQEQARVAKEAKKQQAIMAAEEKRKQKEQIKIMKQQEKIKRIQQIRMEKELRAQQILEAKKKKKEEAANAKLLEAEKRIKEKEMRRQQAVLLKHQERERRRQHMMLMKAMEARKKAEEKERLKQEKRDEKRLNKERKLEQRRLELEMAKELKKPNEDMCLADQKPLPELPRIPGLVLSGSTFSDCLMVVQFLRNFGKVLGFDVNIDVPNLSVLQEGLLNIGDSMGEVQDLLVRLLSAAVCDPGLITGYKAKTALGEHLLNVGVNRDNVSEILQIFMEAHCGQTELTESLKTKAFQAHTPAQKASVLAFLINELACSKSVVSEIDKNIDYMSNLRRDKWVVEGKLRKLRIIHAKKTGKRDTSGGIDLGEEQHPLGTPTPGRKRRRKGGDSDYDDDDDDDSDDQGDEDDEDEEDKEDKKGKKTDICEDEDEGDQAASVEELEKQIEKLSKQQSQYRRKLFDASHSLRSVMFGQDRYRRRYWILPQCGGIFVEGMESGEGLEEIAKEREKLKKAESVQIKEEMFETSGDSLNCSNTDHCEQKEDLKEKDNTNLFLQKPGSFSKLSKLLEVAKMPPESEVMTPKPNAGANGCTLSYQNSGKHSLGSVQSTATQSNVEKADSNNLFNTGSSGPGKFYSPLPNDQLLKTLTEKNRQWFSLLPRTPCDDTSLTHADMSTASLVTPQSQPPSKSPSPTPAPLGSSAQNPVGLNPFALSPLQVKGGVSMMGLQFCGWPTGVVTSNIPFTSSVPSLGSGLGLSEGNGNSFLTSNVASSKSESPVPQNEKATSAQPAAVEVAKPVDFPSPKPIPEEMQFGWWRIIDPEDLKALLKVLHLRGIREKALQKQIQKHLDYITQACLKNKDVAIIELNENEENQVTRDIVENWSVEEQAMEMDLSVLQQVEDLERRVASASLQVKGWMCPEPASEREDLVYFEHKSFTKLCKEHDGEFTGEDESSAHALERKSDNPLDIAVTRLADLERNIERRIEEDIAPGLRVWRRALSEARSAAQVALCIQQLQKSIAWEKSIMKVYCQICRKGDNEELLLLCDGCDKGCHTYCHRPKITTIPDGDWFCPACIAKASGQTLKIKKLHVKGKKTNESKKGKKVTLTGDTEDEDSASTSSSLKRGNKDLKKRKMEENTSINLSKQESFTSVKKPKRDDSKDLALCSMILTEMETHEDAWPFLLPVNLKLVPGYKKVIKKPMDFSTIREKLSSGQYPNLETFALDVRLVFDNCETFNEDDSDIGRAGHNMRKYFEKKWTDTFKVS
Assay: qHTS Assay for Inhibitors of BAZ2B; also: nearly all actives have a fitted effect of over 60% in size
Conditions: AlphaScreen BAZ2B-H3K14Ac peptide displacement; series mostly up to 114 µM
Outline: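 In this displacement format the biotinylated H3(5-23) peptide acetylated at Lys14 serves as ligand at 50 nM, with BAZ2B at 50 nM in PBS pH 7.4 containing 0.01% Tween-20. Donor and acceptor beads are 10 ug/mL final.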
Potency is read from the fitted curve at half-maximal effect; tags tell the direction and shape of the fitted curve.

Question: For `COc1cc(/C=C2\C(=N)N3N=C(S(C)(=O)=O)SC3=NC2=O)cc(OC)c1OCCOc1ccc(C)cc1`, which Potency is on record?
Answer: Its Potency is inconclusive: 70.8 µM [inhibitor, single point].

Question: How did the Potency turn out when `CCOC(=O)c1sc(N2C(=O)C(O)=C(C(=O)c3ccc(C)o3)C2c2cccc([N+](=O)[O-])c2)nc1C` (centres undefined) was run?
Answer: Its Potency is inconclusive: 56.2 µM [inhibitor, partial curve].

Question: With `COc1cc(/C=C2\C(=N)N3N=C(S(C)(=O)=O)SC3=NC2=O)cc(OC)c1OCCOc1cccc(C)c1` as the compound, how does the Potency read?
Answer: The Potency was inconclusive: 50.1 µM [inhibitor, partial curve].

Question: How did the Potency turn out when `O=C1NN(c2ccc(F)c(Cl)c2)C(=O)/C1=C\c1cccc(OC(=O)c2cccs2)c1` was run?
Answer: The Potency was inconclusive: 89.1 µM [inhibitor, single point].

Question: For `O=C(COc1ccc(Cl)cc1)Nc1cc(NC(=O)COc2ccc(Cl)cc2)cc(C(=O)O)c1`, which Potency is on record?
Answer: The Potency was inconclusive: 20 µM [inhibitor, full curve, poor fit].

Question: How did the Potency turn out when `Cc1cc(N2C(=O)C(O)=C(C(=O)c3cc4ccccc4o3)C2c2ccc(Cl)cc2)no1` (centres undefined) was run?
Answer: The Potency was inconclusive: 0.631 µM [inhibitor, full curve, poor fit].

Question: How did the Potency turn out when `Cc1cc(N2C(=O)C(O)=C(C(=O)c3cc4ccccc4o3)C2c2cccc(Br)c2)no1` (centres undefined) was run?
Answer: Its Potency is inconclusive: 22.4 µM [inhibitor, full curve].

Question: With `CCOc1cc(/C=C2/C(=N)N3C(=NC2=O)SN=C3S(C)(=O)=O)ccc1OS(=O)(=O)c1ccccc1` as the compound, how does the Potency read?
Answer: Its Potency is inconclusive: 79.4 µM [inhibitor, single point].

Question: `COc1cc(/C=N/Nc2ccc(Cl)c(C(=O)O)c2)ccc1OC(=O)c1ccc(F)cc1` was tested. Which Potency did it give?
Answer: Its Potency is inconclusive: 50.1 µM [inhibitor, partial curve].
